In all, about 150,000 compounds went through this assay and about 540 (0.36%) showed an effect of 50% or more. This is one part of the list.
Each compound was assayed on Plasmodium falciparum (assay: Primary screen in NF54 nanoGlo assay, in single point, at 2uM, 72h; a lower Z score goes with more inhibition). Conditions: timepoint 72 hour.
Type: functional, Erythrocyte
`CC(C)n1cnnc1[C@H](C)NC(=O)CN(C)C1CCCC1` was tested, and the “% Inhibition” value was 3% and the Z score was -0.58. In the case of `CCCCCNC(=O)[C@H](C#N)C(=O)N1CCOCC1`, the “% Inhibition” value is reported as -10% and the Z score is reported as 1.4. `COC(=O)CC[C@H]1NC(=O)N(c2ccc(-c3csnn3)cc2)C1=O` was tested, and the “% Inhibition” value was 17% and the Z score was -2.14. For `COc1ccc(CN2CC[C@H]3CN(C(C)=O)C[C@@]3(CO)C2)cc1OC`, the “% Inhibition” value was 3% and the Z score was -0.52. `CCOCC1(c2nc(-c3cccc(N4CCN(C)CC4)n3)no2)CC1` was tested, and the “% Inhibition” value was 5% and the Z score was -0.62. In the case of `Cn1cnc(C(=O)N2CCCc3c(Br)c(F)cc(F)c32)n1`, the “% Inhibition” value is reported as -6% and the Z score is reported as 0.88. `COc1ccccc1[C@@H](NC(=O)c1ccc2c(=O)n3c(nc2c1)CCCCC3)c1nccn1C` was tested, and the “% Inhibition” value was 9% and the Z score was -1.36. For `O=C(N[C@H]1CC12CC2)c1ccncc1F`, the “% Inhibition” value was 32% and the Z score was -4.56. In the case of `COc1ccc(-n2nc(C)c3c2NC(=O)C[C@@H]3c2ccccc2OCc2cccc(F)c2)cc1`, the “% Inhibition” value is reported as 8% and the Z score is reported as -0.91. With `CCc1nc(C)c(-c2c(-c3ccccc3)ncn2CC(C)(C)N2CCOCC2)[nH]1` the “% Inhibition” value was 0% and the Z score was 0.06. `Cc1cc(C(=O)N(c2cccc(F)c2)C2CCCC2)n(C)n1` was tested, and the “% Inhibition” value was -5% and the Z score was 0.82. With `CC(=O)N1CCCN(Cc2ccc(N3CCCCC3)c(C)c2)CC1` the “% Inhibition” value was 2% and the Z score was -0.33. For `CC(=O)n1cc(-c2nnc3cnccn23)c2ccccc21`, the “% Inhibition” value was -11% and the Z score was 2.09. In the case of `Cc1cc(C(F)(F)F)cc(N2C[C@H](NC(=O)CO)[C@@H](C3CC3)C2)n1`, the “% Inhibition” value is reported as -26% and the Z score is reported as 2.3. In the case of `Cc1cccc(F)c1CNC(=O)C1C[C@H]2C[C@@H](N)[C@H]2C1` (some centres not stated), the “% Inhibition” value is reported as 1% and the Z score is reported as -0.16. In the case of `O=C(Cc1noc2ccccc12)Nc1cc(Cl)cc(C(=O)O)c1`, the “% Inhibition” value is reported as -5% and the Z score is reported as 0.88. With `Cc1ncsc1Cn1cc(CN2CCOC[C@H]2C)nn1` the “% Inhibition” value was -4% and the Z score was 0.73. In the case of `CCS(=O)(=O)CCNC(=O)Cc1c[nH]c2cc(C)ccc12`, the “% Inhibition” value is reported as -9% and the Z score is reported as 0.74. With `COc1ccc(COCC(=O)N2CCC(F)(c3ccc(Cl)cc3)CC2)cn1` the “% Inhibition” value was 1% and the Z score was -0.11. With `O=S(=O)(CCN1CC(n2cccn2)C1)c1ccc(Cl)cc1` the “% Inhibition” value was 3% and the Z score was -0.43. With `CNCCCOc1c(C)cc(Br)cc1C` the “% Inhibition” value was 11% and the Z score was -1.78. For `CC(C)NS(=O)(=O)c1ccc2c(c1)nnn2CCNC(=O)NC(C)(C)C`, the “% Inhibition” value was -22% and the Z score was 2.26. For `Cc1cccc(NC(=O)N2CCN(C3CC3)[C@H](C(N)=O)C2)c1F`, the “% Inhibition” value was -8% and the Z score was 1.17. For `CC1(C)C[C@@H]1C(=O)NC1C(C)(C)C1(C)C`, the “% Inhibition” value was 2% and the Z score was -0.37. For `Nc1ncc(Cl)cc1S(=O)(=O)Oc1ccc2c(c1)CCC(=O)N2`, the “% Inhibition” value was 32% and the Z score was -3.63. In the case of `COc1cc(CCC(=O)N2CCOc3c(F)cc(F)cc32)on1`, the “% Inhibition” value is reported as 2% and the Z score is reported as -0.35. `CC(C)[C@H](CNC(=O)N1CCN(C(=O)C(C)(C)C)CC1)Cc1ccccc1` was tested, and the “% Inhibition” value was 5% and the Z score was -0.64. For `COc1ccc(CNc2ccncc2F)cc1OCc1ccccc1`, the “% Inhibition” value was -2% and the Z score was 0.19. For `O=S(=O)(c1ccccc1F)N1CCC2(CC1)CC2(F)F`, the “% Inhibition” value was 10% and the Z score was -1.24. `N#Cc1cccc(N2CCN(C(=O)Cn3ccnc3)C[C@H](O)C2)n1` was tested, and the “% Inhibition” value was 19% and the Z score was -2.51. `CCCn1nccc1C(=O)N1CC[C@]23C(=O)N(CC(=O)NCCCOc4cccc(c4)[C@H]12)c1ccccc13` was tested, and the “% Inhibition” value was -6% and the Z score was 1.22. With `O=C1CC[C@H](C(=O)Nc2ccccc2C(=O)NCc2ccccn2)N1` the “% Inhibition” value was -11% and the Z score was 1.22. For `CC(C)(C)C(=O)NCCNC(=O)c1ccccn1`, the “% Inhibition” value was 38% and the Z score was -1.17. In the case of `O=C(CCn1cnc2ccccc2c1=O)N1CC(c2nc(-c3cnccn3)no2)C1`, the “% Inhibition” value is reported as -3% and the Z score is reported as 0.48. In the case of `Cc1cc(C)c2c(=O)n(CC(=O)N3CCC[C@H](C)C3)c(=O)n(-c3ccccc3)c2n1`, the “% Inhibition” value is reported as -4% and the Z score is reported as 0.47. For `N#Cc1cnc2ccc(F)cc2c1N1CCC(C(=O)Nc2ccc3c(c2)OCCO3)CC1`, the “% Inhibition” value was -2% and the Z score was 0.31. `CC(C)(C)NC(=O)c1ccccc1NC(=O)[C@H]1CC(=O)N(CCc2c[nH]c3ccc(F)cc23)C1` was tested, and the “% Inhibition” value was 3% and the Z score was -0.56. In the case of `COc1ccc(CNC(=O)Cn2c(=O)n(Cc3cccc(Cl)c3)c(=O)c3ccccc32)cc1OC`, the “% Inhibition” value is reported as 29% and the Z score is reported as -3.27. With `O=C(Nc1ccccc1C(F)(F)F)N(CCN1CCCCC1)C1CCOCC1` the “% Inhibition” value was -3% and the Z score was 0.47. In the case of `COc1ccc(Oc2nc(N3CCCCC3)nc3c2CN(Cc2cc(OC)cc(OC)c2)CC3)cc1`, the “% Inhibition” value is reported as -22% and the Z score is reported as 2.14. With `CC(C)(C)C(=O)NC[C@H]1CCCN(Cc2ccnc3ccccc23)C1` the “% Inhibition” value was 2% and the Z score was -0.42.
